Like-named read-outs stand apart in the source and are kept apart here.
Molecular target: human CB2 receptor (hCB2) (Homo sapiens, UniProt P34972)
Test: cell-based
Type: cell-based
Settings: for +/− HCB2: agonist or inverse agonist at hCB2
[1] = groups >100 nM-10 μM and >10 μM, cAMP, CHO-K1 hCB2, read-out: EC50 HCB2

Chain of human CB2 receptor (hCB2) (P34972 whole entry): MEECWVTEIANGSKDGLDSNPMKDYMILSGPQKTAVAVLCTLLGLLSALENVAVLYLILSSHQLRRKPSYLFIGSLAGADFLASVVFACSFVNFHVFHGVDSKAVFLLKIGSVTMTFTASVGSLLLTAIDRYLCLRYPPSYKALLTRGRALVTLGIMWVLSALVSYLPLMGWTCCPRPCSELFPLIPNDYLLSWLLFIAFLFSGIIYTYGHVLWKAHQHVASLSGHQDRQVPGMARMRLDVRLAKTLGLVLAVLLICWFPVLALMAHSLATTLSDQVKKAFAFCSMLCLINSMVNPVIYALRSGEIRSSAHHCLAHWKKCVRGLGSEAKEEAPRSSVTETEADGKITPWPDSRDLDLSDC

| SMILES | +/− HCB2 | EC50 | further results |
| --- | --- | --- | --- |
| CNC(=O)[C@@H](NC(=O)c1nc(/C=C/CC2CCCC2)n2c1CN(C)CCC2)C(C)(C)C [Compound 445, (S,E)-3-(3-cyclopentylprop-1-enyl)-N-(3,3-dimethyl-1-(methylamino)-1-oxobutan-2-yl)-8-methyl-6,7,8,9-tetrahydro-5H-imidazo[1,5-a][1,4]diazepine-1-carboxamide] | − |  |  |
| CNC(=O)[C@@H](NC(=O)c1nc(-c2ccccc2)n2c1CN(S(=O)(=O)c1ccc(C#N)cc1)CC2)C(C)(C)C [Compound 108, (S)-7-(4-cyanophenylsulfonyl)-N-(3,3-dimethyl-1-(methylamino)-1-oxobutan-2-yl)-3-phenyl-5,6,7,8-tetrahydroimidazo[1,5-a]pyrazine-1-carboxamide] |  | > 10000 nM |  |
| CN1CCn2c(-c3ccccc3)nc(C(=O)NCC3CCOCC3)c2C1 [Compound 236, 7-methyl-3-phenyl-N-((tetrahydro-2H-pyran-4-yl)methyl)-5,6,7,8-tetrahydroimidazo[1,5-a]pyrazine-1-carboxamide] |  | > 10000 nM |  |
| CNC(=O)[C@@H](NC(=O)c1nc(/C=C/CN(C)C)n2c1CN(C)CCC2)C(C)(C)C [Compound 513, (S,E)-N-(3,3-dimethyl-1-(methylamino)-1-oxobutan-2-yl)-3-(3-(dimethylamino)prop-1-enyl)-8-methyl-6,7,8,9-tetrahydro-5H-imidazo[1,5-a][1,4]diazepine-1-carboxamide] | + |  |  |
| CNC(=O)[C@@H](NC(=O)c1nc(C2=CCC(C(C)(C)C)CC2)n2c1CN(C)CC2)C(C)(C)C (stereo partly drawn) [Compound 271, 3-(4-tert-butylcyclohex-1-enyl)-N-((S)-3,3-dimethyl-1-(methylamino)-1-oxobutan-2-yl)-7-methyl-5,6,7,8-tetrahydroimidazo[1,5-a]pyrazine-1-carboxamide] | + |  |  |
| CCS(=O)(=O)N1CCn2c(-c3ccccc3)nc(C(=O)N[C@H](C)C3CCCCC3)c2C1 [Compound 111, (R)-N-(1-cyclohexylethyl)-7-(ethylsulfonyl)-3-phenyl-5,6,7,8-tetrahydroimidazo[1,5-a]pyrazine-1-carboxamide] | + |  |  |
| CNC(=O)[C@@H](NC(=O)c1nc(-c2ccc(Cl)cc2F)n2c1CN(C1CCNCC1)CCC2)C(C)(C)C [Compound 526, (S)-3-(4-chloro-2-fluorophenyl)-N-(3,3-dimethyl-1-(methylamino)-1-oxobutan-2-yl)-8-(piperidin-4-yl)-6,7,8,9-tetrahydro-5H-imidazo[1,5-a][1,4]diazepine-1-carboxamide] |  | > 10000 nM |  |
| CNC(=O)[C@@H](NC(=O)c1nc(-c2ccccc2)n2c1CN(S(=O)(=O)c1cccc(F)c1)CC2)C(C)(C)C [Compound 99, (S)-N-(3,3-dimethyl-1-(methylamino)-1-oxobutan-2-yl)-7-(3-fluorophenylsulfonyl)-3-phenyl-5,6,7,8-tetrahydroimidazo[1,5-a]pyrazine-1-carboxamide] | − |  |  |
| CNC(=O)[C@@H](NC(=O)c1nc(CCCOC)n2c1CN(C)CCC2)C(C)(C)C [Compound 489, (S)-N-(3,3-dimethyl-1-(methylamino)-1-oxobutan-2-yl)-3-(3-methoxypropyl)-8-methyl-6,7,8,9-tetrahydro-5H-imidazo[1,5-a][1,4]diazepine-1-carboxamide] | + |  |  |
| CN1CCn2c(-c3ccc(Cl)cc3F)nc(C(=O)N3CCC(C(=O)N4CCOCC4)CC3)c2C1 [Compound 226, (3-(4-chloro-2-fluorophenyl)-7-methyl-5,6,7,8-tetrahydroimidazo[1,5-a]pyrazin-1-yl)(4-(morpholine-4-carbonyl)piperidin-1-yl)methanone] |  | > 10000 nM |  |
| CNC(=O)[C@@H]1CCCN1C(=O)c1nc(-c2ccccc2)n2c1CNCCC2 [Compound 602] |  | > 10000 nM |  |
| CNC(=O)[C@@H](NC(=O)c1nc(-c2ccc(F)c(OC)c2)n2c1CN(C)CCC2)C(C)(C)C [Compound 393, (S)-N-(3,3-dimethyl-1-(methylamino)-1-oxobutan-2-yl)-3-(4-fluoro-3-methoxyphenyl)-8-methyl-6,7,8,9-tetrahydro-5H-imidazo[1,5-a][1,4]diazepine-1-carboxamide] | + |  |  |
| CN1CCn2c(-c3ccccc3)nc(C(=O)NCCCO)c2C1 [Compound 229, N-(3-hydroxypropyl)-7-methyl-3-phenyl-5,6,7,8-tetrahydroimidazo[1,5-a]pyrazine-1-carboxamide] |  | > 10000 nM |  |
| Cc1noc([C@@H](NC(=O)c2nc(-c3ccccc3)n3c2CN(C(C)C)CCC3)C(C)(C)C)n1 [Compound 525, (S)-N-(2,2-dimethyl-1-(3-methyl-1,2,4-oxadiazol-5-yl)propyl)-8-isopropyl-3-phenyl-6,7,8,9-tetrahydro-5H-imidazo[1,5-a][1,4]diazepine-1-carboxamide] |  | > 10000 nM |  |
| CC(C)(CO)CNC(=O)c1nc(-c2ccccc2)n2c1CN(CC1CC1)CC2 [Compound 83, 7-(cyclopropylmethyl)-N-(3-hydroxy-2,2-dimethylpropyl)-3-phenyl-5,6,7,8-tetrahydroimidazo[1,5-a]pyrazine-1-carboxamide] |  |  | EC50 [1]: > 10000 nM |
| CCS(=O)(=O)N1CCn2c(-c3ccccc3)nc(C(=O)Nc3ccccc3)c2C1 [Compound 114, 7-(ethylsulfonyl)-N,3-diphenyl-5,6,7,8-tetrahydroimidazo[1,5-a]pyrazine-1-carboxamide] |  |  | EC50 [1]: > 10000 nM |
| CCNC(=O)[C@@H](NC(=O)c1nc(-c2ccccc2)n2c1CN(C)CCC2)C(C)(C)C [Compound 478, (S)-N-(1-(ethylamino)-3,3-dimethyl-1-oxobutan-2-yl)-8-methyl-3-phenyl-6,7,8,9-tetrahydro-5H-imidazo[1,5-a][1,4]diazepine-1-carboxamide] | + |  |  |
| CNC(=O)[C@@H](NC(=O)c1nc(-c2ccccc2)n2c1CN(S(=O)(=O)C(C)C)CC2)C(C)(C)C [Compound 94, (S)-N-(3,3-dimethyl-1-(methylamino)-1-oxobutan-2-yl)-7-(isopropylsulfonyl)-3-phenyl-5,6,7,8-tetrahydroimidazo[1,5-a]pyrazine-1-carboxamide] |  | > 10000 nM |  |
| CN1CCCn2c(-c3cc(F)ccc3F)nc(C(=O)N[C@@H](CC(C)(C)C)C(N)=O)c2C1 [Compound 583, (S)-N-(1-amino-4,4-dimethyl-1-oxopentan-2-yl)-3-(2,5-difluorophenyl)-8-methyl-6,7,8,9-tetrahydro-5H-imidazo[1,5-a][1,4]diazepine-1-carboxamide] | + |  |  |
| CCN1CCCn2c(-c3ccccc3)nc(C(=O)N[C@H](C(=O)NC)C(C)(C)C)c2C1 [Compound 318, (S)-N-(3,3-dimethyl-1-(methylamino)-1-oxobutan-2-yl)-8-ethyl-3-phenyl-6,7,8,9-tetrahydro-5H-imidazo[1,5-a][1,4]diazepine-1-carboxamide] | + |  |  |
| C[C@H](NC(=O)c1nc(-c2ccccc2)n2c1CN(C(=O)C1CC1)CC2)c1ccccc1 [Compound 124, (S)-7-(cyclopropanecarbonyl)-3-phenyl-N-(1-phenylethyl)-5,6,7,8-tetrahydroimidazo[1,5-a]pyrazine-1-carboxamide] |  | > 10000 nM |  |
| CNC(=O)[C@H](CC(C)(C)C)NC(=O)c1nc(-c2cc(F)c(F)cc2F)n2c1CN(C)CCC2 [Compound 555, (S)-N-(4,4-dimethyl-1-(methylamino)-1-oxopentan-2-yl)-8-methyl-3-(2,4,5-trifluorophenyl)-6,7,8,9-tetrahydro-5H-imidazo[1,5-a][1,4]diazepine-1-carboxamide] | + |  |  |
| CNC(=O)[C@@H](NC(=O)c1nc(-c2ccc(NS(C)(=O)=O)cc2)n2c1CN(C)CCC2)C(C)(C)C [Compound 420, (S)-N-(3,3-dimethyl-1-(methylamino)-1-oxobutan-2-yl)-8-methyl-3-(4-(methylsulfonamido)phenyl)-6,7,8,9-tetrahydro-5H-imidazo[1,5-a][1,4]diazepine-1-carboxamide] |  | > 10000 nM |  |
| CCC/C=C/c1nc(C(=O)N[C@H](C(=O)NC)C(C)(C)C)c2n1CCCN(C)C2 [Compound 434, (S,E)-N-(3,3-dimethyl-1-(methylamino)-1-oxobutan-2-yl)-8-methyl-3-(pent-1-enyl)-6,7,8,9-tetrahydro-5H-imidazo[1,5-a][1,4]diazepine-1-carboxamide] | + |  |  |
| CNC(=O)[C@@H](NC(=O)c1nc(-c2cccc(Cl)c2F)n2c1CN(C)CCC2)C(C)(C)C [Compound 356, (S)-3-(3-chloro-2-fluorophenyl)-N-(3,3-dimethyl-1-(methylamino)-1-oxobutan-2-yl)-8-methyl-6,7,8,9-tetrahydro-5H-imidazo[1,5-a][1,4]diazepine-1-carboxamide] | + |  |  |
| CNC(=O)[C@@H](NC(=O)c1nc(C2CCCC2)n2c1CN(C)CCC2)C(C)(C)C [Compound 497, (S)-3-cyclopentyl-N-(3,3-dimethyl-1-(methylamino)-1-oxobutan-2-yl)-8-methyl-6,7,8,9-tetrahydro-5H-imidazo[1,5-a][1,4]diazepine-1-carboxamide] | + |  |  |
| CC(C)C[C@H](NC(=O)c1nc(-c2ccc(Cl)cc2F)n2c1CN(C)CCC2)C(N)=O [Compound 564, (S)-N-(1-amino-4-methyl-1-oxopentan-2-yl)-3-(4-chloro-2-fluorophenyl)-8-methyl-6,7,8,9-tetrahydro-5H-imidazo[1,5-a][1,4]diazepine-1-carboxamide] | + |  |  |
| CN1CCCn2c(-c3ccc(Cl)c(F)c3)nc(C(=O)N[C@H](C(N)=O)C(C)(C)C)c2C1 [Compound 577, (S)-N-(1-amino-3,3-dimethyl-1-oxobutan-2-yl)-3-(4-chloro-3-fluorophenyl)-8-methyl-6,7,8,9-tetrahydro-5H-imidazo[1,5-a][1,4]diazepine-1-carboxamide] | + |  |  |
| CNC(=O)[C@@H](NC(=O)c1nc(-c2ccccc2C(N)=O)n2c1CN(C)CCC2)C(C)(C)C [Compound 431, (S)-3-(2-carbamoylphenyl)-N-(3,3-dimethyl-1-(methylamino)-1-oxobutan-2-yl)-8-methyl-6,7,8,9-tetrahydro-5H-imidazo[1,5-a][1,4]diazepine-1-carboxamide] | + |  |  |
| CNC(=O)[C@@H](NC(=O)c1nc(-c2cccs2)n2c1CNCC2)C(C)(C)C [Compound 16, (S)-N-(3,3-dimethyl-1-(methylamino)-1-oxobutan-2-yl)-3-(thiophen-2-yl)-5,6,7,8-tetrahydroimidazo[1,5-a]pyrazine-1-carboxamide] | + |  |  |

From patent US7517874B2 (priority 2007, dated 2009)
